# Results: the supplement of paper PMC12632987
# Over roughly 1,800 sequences, “median log2 fold change of GCK-ALFA target abundance (FLAG IP / Myc IP barcode read proportion)” has its median near 0.14; the lowest 2% begin near -0.84. This is one part of the list.
# T1: TRAF2, Q12933
# T1 chain: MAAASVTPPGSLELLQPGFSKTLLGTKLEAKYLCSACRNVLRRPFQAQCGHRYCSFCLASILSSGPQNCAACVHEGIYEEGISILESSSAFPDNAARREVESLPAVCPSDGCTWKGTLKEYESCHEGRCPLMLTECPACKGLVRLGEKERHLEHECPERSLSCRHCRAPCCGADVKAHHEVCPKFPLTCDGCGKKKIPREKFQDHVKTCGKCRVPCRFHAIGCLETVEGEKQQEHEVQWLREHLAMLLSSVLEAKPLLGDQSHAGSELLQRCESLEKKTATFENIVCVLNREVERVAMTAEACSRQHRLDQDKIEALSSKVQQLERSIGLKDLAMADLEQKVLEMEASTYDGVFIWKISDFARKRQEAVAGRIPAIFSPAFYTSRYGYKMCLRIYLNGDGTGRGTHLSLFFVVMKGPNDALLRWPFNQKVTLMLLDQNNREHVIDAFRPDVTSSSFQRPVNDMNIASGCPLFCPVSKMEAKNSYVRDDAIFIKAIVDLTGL
# B1: traf2_out_20_3_2065 (protein)
# chain: EELEKKLEEELEKAIKLLKEAAKKADKETAKKLEELIKRLKKSKELSYDDRLVVLSEIRRELLKLAEEAKAKGDEELAKLLEEAADALNKAMQLTYEIIE
# B2: traf2_out_15_180_1326 (protein)
# chain: MTEEELKKRIELANEVADKVDDKLAALLAAHPDLSPAERAALRALARSLTTLLMNGEEEEAAAALEAAEARLSPRAAAVARELAEFIKEVVKKAKEELEK
# B3: traf2_out_17_162_1528 (protein)
# chain: SALAARLAALEAELAALEARLAELEARLAEVDALSKEELTDLLVEASEARRRARALAEELEKLRAEIGAERAQALIDRARAIAERLQRIANTLYKALEKK
# B4: traf2_out_6_156_2449 (protein)
# chain: TLEEILKETKEKIKKGIEELAKAPEEKKIAEISRIAGAAYRGLQRAREAGASLEELKAFAEELKKVAEEEAEKAGLDEKTKNLLLSSLNAVFDVALAEAA
# B5: traf2_out_5_63_2356 (protein)
# chain: SEREELTALARRADELARRLLEAAEAGKEEEVEKLLEEAAEDPELARLVLGILRGEARYYELLGTDPERAAIARELAERLERLMEEKERREREERERRLR
# B6: traf2_out_6_156_2437 (protein)
# chain: SVEEIEAATKAELEKLIEELAKASEEKKIFYINRIAGTVYRALQRLREAGASLEELRAFAERIRAFLKEAADKAGLDESTKNLLLSSVNAVFDVALASAA
# B7: traf2_out_3_89_2288 (protein)
# chain: SPETEAKIAEMRAIIDRYVAGFAKSARRVAKEMIAEGHSLDTLRGVLTAARNALIEEIRERAREAGLDEETIAELTADAAARLDAIVDAVVAEAAAARAA
# B8: traf2_out_18_117_1770 (protein)
# chain: SEREEIIARLEALAAELDRAASELGKAVLEHWDELTPEERSEAMDVLADLSAVRREALLLIHEIRERGLPLEEARARAEALEARAAAALAAAAARLERIK
# B9: traf2_out_20_3_2252 (protein)
# chain: EELRKEAEKALEEIEALLAEAAPRLPPEDAAEARELLAKAREYFETDYTDALVYISELRRLALERAQRARAAGDAETAALLERLAEAAGRAAYYLYKIIE
# B10: traf2_out_20_3_2199 (protein)
# chain: SELEEELEKALEEALKLLKEAAALADPETAKVLEELAKRLEESRELSYEDRLVVLSEIRRQVLLLAQQARAAGNEELAAVLDEAADALQRAMNLVYKIIE
# B11: traf2_out_6_169_2485 (protein)
# chain: SMKEELKKEAERHLERAKELEKIAKTIYKQVIENNDLENLENYILALETLKSAADHHYDKAIAKLKELGEEEKAEEVEKEREKVKKEMEKMIEEVKKLKE
# B12: traf2_out_17_162_1511 (protein)
# chain: SEIEELKKKFEEELKELEEELERLEKKMERLKELSKEEISDLLVEASEARRKALELAEEIEKNKEKLGEEEAEKLKDRAEEIAERLQRIANKAYKELLKK
# B13: traf2_out_11_155_747 (protein)
# chain: EEKKKLNQEMNNKINDLFDKAREEALKIAEEAAEEHPEHAEEIKEKIEETKGFSYRSFILQMIELFKELGLEEYAKKLEKLLEETQKKANEIVQETEKKL
# B14: traf2_out_11_155_729 (protein)
# chain: EKKREAQNKIVDHNLEVGDALLAEVEAIIAEVAAEDPEVAAELRAVVAEHLKYSATSAARAAIDLLRERGYEEQAARLEAALEAAQKEKSEFIKKVEEEL
# B15: traf2_out_17_178_1715 (protein)
# chain: TKEAARAEISAATDEMIDLAEAAAARLLAIAEAEGSLSPEELAELRRARRLGSARTTRALMRRAIPRSPSAAEVQALLDDFEKRYAELSKKIAEALKKYE
# B16: traf2_out_17_162_1633 (protein)
# chain: SPYEERLRRLEEELERLREKLEELEKKAENIEKLSKEELTDLLVEASEARRRARELAEEIRRLREERDDPRLEELLEEAERLAEKFQRIANKFYKKLLEK
# B17: traf2_out_18_3_1937 (protein)
# chain: KEEELKKISEKIDEIIDEAEAKAREALARLKERHPELAAEAERLEALLDAGAGPFGILEAVAELFRRAGDEEAAKEIEEFLREKRKEMQELIDKYEELRK
# B18: traf2_out_17_60_1760 (protein)
# chain: GPEERKKELAEEARRKIEEARRLVEEVRKKLEAGTLTADEAMDYLVELSEKRRELRRLAEELRAEGPEFEPLIEELERAIEEVERTMNEVGKELERLLAA
# B19: traf2_out_15_48_1350 (protein)
# chain: STEKLRETAREIADLIDETLDEVAEELEKLRPEAAPELKPLIDEAIDIASKKKSINDTIATLEEAQKKASPELAAKLQALIDRLRATRKEASKLFNETEK
# Target: T1, TRAF2, Q12933
# Experiment: median log2 fold change of GCK-ALFA target abundance (FLAG IP / Myc IP barcode read proportion) (log2 ratio); each designed protein is fused to an ALFA-tag nanobody in HEK293 cells to bring the named protein to FLAG-tagged glucokinase (GCK); Myc marks an untargeted standard; higher = target protein stabilised (more abundant)
# Conditions: target protein: 3xFLAG-MCP-GCK-ALFA reporter; HEK293 landing pad (RPLP)
# Summary of the method: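 The readout is target abundance, the per-binder median log2 ratio of FLAG to Myc barcode read proportions. It came from HEK293 landing-pad cells carrying a recombined ALFA-nanobody-fused binder library, induced with 2 μg mL^−1 doxycycline and transfected with a plasmid for a FLAG-tagged target and a Myc-tagged standard. After 48 h, lysates were immunoprecipitated with anti-FLAG and anti-Myc, and circular RNA barcodes were reverse transcribed, amplified and sequenced. Each barcode needed a proportion of at least 10^−7 in both replicates and each binder at least 3 barcodes per replicate, a pseudocount of 10^−6 was added, and the replicates were pooled.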
row,Binder,median log2 fold change
1,B1,0.378
2,B2,0.218
3,B3,0.314
4,B4,0.117
5,B5,0.448
6,B6,0.157
7,B7,-0.32
8,B8,0.0919
9,B9,0.218
10,B10,0.228
11,B11,0.0614
12,B12,0.522
13,B13,0.371
14,B14,0.277
15,B15,-0.171
16,B16,0.135
17,B17,0.0939
18,B18,0.112
19,B19,0.561
